Assay results taken from the supplement of paper PMC3334620.
Whole data set: some 33,000 sequences, median “E-score (-0.5 to 0.5)” near -0.036, cut for the highest 2% near 0.37. The list shows a part of the results.

Target: T1, Yer064c (UniProt P40041)
T1 sequence: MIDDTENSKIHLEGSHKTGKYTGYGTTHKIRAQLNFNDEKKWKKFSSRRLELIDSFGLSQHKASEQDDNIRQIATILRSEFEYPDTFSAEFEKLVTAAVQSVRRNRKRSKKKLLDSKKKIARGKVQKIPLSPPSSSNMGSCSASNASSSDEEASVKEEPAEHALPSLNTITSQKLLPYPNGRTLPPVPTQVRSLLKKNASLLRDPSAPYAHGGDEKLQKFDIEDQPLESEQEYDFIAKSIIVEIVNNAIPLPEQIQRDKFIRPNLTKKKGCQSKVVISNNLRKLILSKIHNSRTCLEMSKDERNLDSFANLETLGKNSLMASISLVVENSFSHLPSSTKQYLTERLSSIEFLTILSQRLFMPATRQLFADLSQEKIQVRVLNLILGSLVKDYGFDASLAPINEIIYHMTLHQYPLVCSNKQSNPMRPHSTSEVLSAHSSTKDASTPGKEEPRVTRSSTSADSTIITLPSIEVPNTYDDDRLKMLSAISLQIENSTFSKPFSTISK
Test: PBM E-score (8-mer binding enrichment) (E-score (-0.5 to 0.5)); higher = stronger / more preferred TF binding; most listed sequences are background and not binding sites
Settings: protein concentration: 200 nM; construct: GST-full length
Procedure: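 Universal 'all 10-mer' protein binding microarrays (Agilent AMADID 015681) probed with GST-tagged S. cerevisiae TFs (full-length or DBD) made by in vitro transcription/translation (PURExpress), about 100-200 nM. Bound TF was detected with fluorescent anti-GST. Each ungapped 8-mer (which stands for itself and its reverse complement) is scored by the PBM enrichment score (E-score), a modified Wilcoxon-Mann-Whitney statistic from -0.5 to +0.5, computed with the Universal PBM Analysis Suite. Scale: above 0.35 generally sequence-specific binding.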

Sequence	PBM E-score
TTACGCAA	0.157
CAGAAAGG	-0.186
CCCCCGCA	-0.326
AGTCACAG	0.467
CTGTGTTC	0.0489
AACGCATA	-0.121
CGATGGCA	-0.405
CGCAATAG	0.045
ACCGACGG	-0.186
CAATACCC	0.011
TCCGAAGA	0.0783
AATTGTAA	0.0266
AGCCCAGC	-0.256
ACAGGGAA	-0.1
GTCCACGA	-0.147
AGCTAATC	0.206
TAGCCAGA	0.0824
ACGCTCGC	0.0112
AGAGTCTG	0.147
GGAGCTAC	-0.214
GTACTCGA	0.0683
GAGATCTA	-0.134
CATATGAA	-0.0378
TGTTACAA	0.0483
CCCAAGCG	-0.016

Sequence	PBM E-score
AACTTGTA	-0.0723
GCCCACCA	-0.335
CTTTGGTA	-0.0864
ATTAACAC	0.267
AGGAACGG	-0.36
CATAACAG	-0.114
CTTAAAGA	0.169
TAGACGAA	0.101
GAGTGTCA	0.0868
AGAGTGCA	-0.157
AAGAACCC	-0.128
CCCAATAC	-0.168
ACCATAAA	0.134
ATTTACCC	-0.0205
GGAGTGTA	-0.0455
ATACCGTG	-0.00791
CAATCCCG	0.0705
GAAGCACA	-0.0534
GCACGTGA	-0.0918
AACTTAAC	0.0853
ACTACTTG	0.247
ATTTCTAC	-0.0155
CCCCGGGG	-0.29
AAGAATCA	0.392
CATTAACG	0.0806

Sequence	PBM E-score
GGTTGAAC	0.0486
ACCTGGGC	-0.215
ATCCGCTA	-0.0564
CATTCAGA	0.0564
GCGTGTCC	-0.0669
ACACATGT	0.194
CCTGATTC	0.399
ATTAAGAC	0.208
CGCATAAA	0.094
ATATCACG	-0.122
GCACTCAA	-0.117
ACCCCGGA	-0.115
TGTACACA	0.142
AGCACCGA	-0.0273
ATACTGGA	-0.0743
AAAGTGCT	0.156
AAAAGGCA	0.112
CAACCACA	0.0653
AAAGGATT	0.0622
CTGACAAA	-0.0397
GGTGTTGA	0.0901
ATAGCCTG	0.0506
AAGCCCAG	-0.282
AAGGCAAT	0.0533
ACATAGAC	0.0983

Sequence	PBM E-score
GACTGCAA	0.264
ACACATCC	0.241
CGCCCCGC	-0.15
TCCAATAA	0.0134
AACGTACT	0.136
CTAGAGTC	0.366
CGAGTGCG	-0.014
AGAGACTC	0.386
CTAAAGCA	0.104
AAGGCATC	-0.296
GTGTAAAC	0.0831
ATCAGGTG	0.145
ATGTATCG	0.0252
ACCGGGGA	-0.246
ACGTTTGG	-0.156
ACACTGCA	-0.0727
TGAGATCA	0.0875
AAGACGAC	0.142
AGCCAACC	-0.138
CTTCTTCC	-0.14
AGAAAGGA	-0.0694
ATTTAACA	0.226
ACCAGAAC	0.0565
AATCAAAT	0.23
ATACTCAT	0.371

Sequence	PBM E-score
GAGAGGAA	-0.0878
CGCGTCAG	-0.188
CGGAAAAA	-0.0589
AACTGTGG	-0.0242
CCAATTCC	-0.194
ATTATCGC	0.119
ATGGACAA	0.0469
AGGGTATG	-0.017
AGGCAGGC	-0.303
CATTTTGG	-0.116
GATACACA	0.147
CTAAATCA	0.337
AGAAATAG	0.00239
GTACCCGA	-0.0616
CTCTCCGA	-0.117
ACACTGCT	-0.0282
AGCGATTG	-0.0217
ACTGAGAG	0.0323
TGCCAGAA	-0.0788
GAGAAGAA	-0.0149
ACGGTACG	0.0345
TACTTGCA	-0.0641
GCCCGTCC	-0.234
ACTTCTAA	0.122
GTGGCATA	-0.194

Sequence	PBM E-score
AGGTTCTG	-0.128
CCTACATA	-0.152
GGGTCTGA	-0.0087
AGTCGAAA	0.282
GTAAATAA	0.0204
TAGTTTCA	0.196
GACAGTCA	0.409
AGTAGCTC	-0.176
ATATGCCG	-0.209
CACCTCGG	-0.0538
TACATGAA	0.0413
GGAACTCC	-0.216
ACTGGACT	0.113
GTATCCTA	-0.195
GACATAAA	0.0495
GTCCTGTA	0.113
AGGACATA	0.00548
CACAGACG	0.0852
CTCGGCAG	-0.108
AAGTGCGT	-0.063
CCGGGTGA	0.176
GCATAAAA	0.00233
AAGCACCT	-0.2
ATATTGGC	-0.228
CACCTGCG	-0.121

Sequence	PBM E-score
AACGTTCG	-0.115
CGTCCCGC	-0.0717
ACTCGTGA	0.305
AAGCTTTG	-0.0898
AAGATAGC	-0.142
ATGTGAGC	0.00993
TCAGGTCA	0.0552
CTTCTAGA	0.0143
ACCGTCCC	0.0283
GAAAGAGA	0.0896
AACTTCCG	0.0922
ATCCGCTG	0.0009
ATGCAGTA	-0.0989
ACTTTAAT	0.107
ACGGAGCG	-0.0547
AACAGAAT	-0.0213
GTATTCAA	0.087
AAGTATTA	0.0874
TAGTCCGA	0.339
GCTCAGCA	0.067
GACCAAAC	-0.169
ACACCCGC	-0.134
